The text below walks through data of patent publication US20260015418A1 (ABL BIO, published 2026).

For experiment [1], the target named is T1, human ROR1-Fc protein (Sino Biological, 13968-H02H1) (human, UniProt Q01973 part only).
T1 construct: Bought protein; also called human ROR1 protein (13968-H02H1, Fc tag)
Briefly: DACE ELISA (ROR1-Fc coated, 4-1BB-His detection); 7 days in human serum at 37°C. Here is the method:
(§1) A 96-well microtiter plate (NUNC, 446612) was coated overnight at 4° C. with human ROR1-Fc protein (Sinobio, 13968-H02H1) at 100 ng/well in PBS. The plate was then incubated with 1% BSA buffer (1×PBS, 1% (v/v) BSA) at 200 μl/well at 37° C. for 2 hours to block non-specific binding. Thereafter, the blocking solution was discarded and fourfold dilutions of each bispecific antibody test material (starting from 100 nM) were added to the wells. The plate was incubated at 37° C. for 2 hours and then washed with PBS-T (1×PBS/0.05% (v/v) Tween-20). Subsequently, human 4-1BB-His protein (Sinobio, 10041-H08H) dissolved in 1% BSA buffer was added at 100 ng/well and incubated at 37° C. for 1 hour. After washing with PBS-T, the plate was incubated with anti-His HRP (Roche, Cat: 11965085001) at 37° C. for 1 hour. After washing, color development was performed with TMB (tetramethylbenzidine, Sigma, T0440) and the color development was stopped with 0.5M sulfuric acid (Samchun Chemicals, S1410), and the absorbance (OD) at 450-650 nm was read using a spectrophotometer. Four-parameter logistic curve analysis was performed using GraphPad software.
Background: ELISA stands for enzyme-linked immunosorbent assay.

The target of experiment [2] is T1, human ROR1-Fc protein (Sino Biological, …). Put plainly: DACE ELISA; 14 days in monkey serum, against day 0. Here is the method: as §1
Experiment [3] has the same target. Briefly: DACE ELISA (ROR1-Fc coated, 4-1BB-His detection); 0 day in human serum at 37°C. Here is the method:
as §1

For experiment [4] the target is unchanged. Briefly: DACE ELISA (ROR1-Fc coated, 4-1BB-His detection); 2 days in monkey serum at 37°C. As to the method: as §1
Experiment [5] has the same target. Briefly: DACE ELISA; 2 days in human serum, against day 0. As to the method: as §1
For experiment [6] the target is unchanged. Briefly: DACE ELISA; 7 days in monkey serum, against day 0. As to the method: as §1
In experiment [7] the target is human 4-1BB on Jurkat cells (Promega) (human, UniProt Q07011 24-255). Put plainly: cell-based or functional assay.
Experiment [8] concerns the target T1, human ROR1-Fc protein (Sino Biological, …). Put plainly: DACE ELISA; 2 days in monkey serum, against day 0. Here is the method: as §1
Experiment [9] shares this target. Briefly: DACE ELISA; 7 days in human serum, against day 0. As to the method: as §1
For experiment [10] the target is unchanged. Briefly: DACE ELISA (ROR1-Fc coated, 4-1BB-His detection); 0 day in monkey serum at 37°C. As to the method: as §1
Experiment [11] shares this target. Put plainly: DACE ELISA (ROR1-Fc coated, 4-1BB-His detection); 2 days in human serum at 37°C. Here is the method:
as §1

Experiment [12] shares this target. Briefly: DACE ELISA (ROR1-Fc coated, 4-1BB-His detection); 7 days in monkey serum at 37°C. As to the method: as §1
Experiment [13] has the same target. Put plainly: DACE ELISA; 14 days in human serum, against day 0. As to the method: as §1
For experiment [14] the target is unchanged. Put plainly: DACE ELISA (ROR1-Fc coated, 4-1BB-His detection); 14 days in monkey serum at 37°C. As to the method:
as §1

Experiment [15] has the same target. Put plainly: DACE ELISA; 0 day in human serum, against day 0. Here is the method:
as §1

Experiment [16] shares this target. Put plainly: DACE ELISA (ROR1-Fc coated, 4-1BB-His detection); 14 days in human serum at 37°C. As to the method:
as §1

Experiment [17] has the same target. Put plainly: DACE ELISA; 0 day in monkey serum, against day 0. As to the method:
as §1

T1 sequence (Q01973 30-403 limits assumed): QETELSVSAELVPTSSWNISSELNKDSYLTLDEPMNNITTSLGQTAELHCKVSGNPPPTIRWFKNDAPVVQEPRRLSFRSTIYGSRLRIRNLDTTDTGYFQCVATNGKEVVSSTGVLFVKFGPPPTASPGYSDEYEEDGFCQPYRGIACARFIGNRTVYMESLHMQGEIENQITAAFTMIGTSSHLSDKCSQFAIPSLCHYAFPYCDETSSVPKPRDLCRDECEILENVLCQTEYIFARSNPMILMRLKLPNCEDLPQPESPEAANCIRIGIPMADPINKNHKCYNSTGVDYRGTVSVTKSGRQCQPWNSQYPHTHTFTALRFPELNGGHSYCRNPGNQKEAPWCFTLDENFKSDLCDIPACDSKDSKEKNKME
Chain of UniProt Q07011 (Q07011 24-255): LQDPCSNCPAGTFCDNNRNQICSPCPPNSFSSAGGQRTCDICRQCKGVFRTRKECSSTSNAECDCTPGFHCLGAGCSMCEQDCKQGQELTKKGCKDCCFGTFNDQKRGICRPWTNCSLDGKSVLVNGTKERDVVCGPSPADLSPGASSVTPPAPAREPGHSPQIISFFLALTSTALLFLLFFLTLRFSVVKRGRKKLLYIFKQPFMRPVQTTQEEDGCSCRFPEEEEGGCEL

B1: BA6x1A10M12 anti-ROR1/anti-4-1BB bispecific antibody (control with parental BA6 clone) (bispecific antibody, human IgG1, lambda)
heavy: EVQLLESGGGLVQPGGSLRLSCAASGFTFSNYDMSWVRQAPGKGLEWVSAIYHSGSSKYYADSVKGRFTISRDNSKNTLYLQMNSLRAEDTAVYYCARGGNGAWDTGFDYWGQGTLVTVSSASTKGPSVFPLAPSSKSTSGGTAALGCLVKDYFPEPVTVSWNSGALTSGVHTFPAVLQSSGLYSLSSVVTVPSSSLGTQTYICNVNHKPSNTKVDKKV[human IgG1 Fc with changes not shown]GSGSGSGSGSGSGSGSGSQSVLTQPPSASGTPGQRVTISCSGSSSNIGNNYVTWYQQLPGTAPKLLIYADSHRPSGVPDRFSGSKSGTSASLAISGLRSEDEADYYCATWDYSLSGYVFGCGTKLTVLGGGGSGGGGSGGGGSGGGGSEVQLLESGGGLVQPGGSLRLSCAASGFTFSSYDMSWVRQAPGKCLEWVSWISYSGGSIYYADSVKGRFTISRDNSKNTLYLQMNSLRAEDTAVYYCARDAQRNSMREFDYWGQGTLVTVSS
light: QSVLTQPPSASGTPGQRVTISCSGSSSNIGSNDVSWYQQLPGTAPKLLIYYDNNRPSGVPDRFSGSKSGTSASLAISGLRSEDEADYYCGAWDDSLSGYVFGGGTKLTVLGQPKAAPSVTLFPPSSEELQANKATLVCLISDFYPGAVTVAWKADSSPVKAGVETTTPSKQSNNKYAASSYLSLTPEQWKSHRSYSCQVTHEGSTVEKTVAPAECS
notes: Control bispecific; also called BA6 × 1A10M12
In general, EC50 refers to the midpoint of the concentration-response curve. Consider B1, for which the EC50 is 0.42 nM in experiment [1]; 0.228 nM in [3]; 0.36 nM in experiment [4]; 0.24 nM in experiment [10]; 0.365 nM in experiment [11]; 0.427 nM in [12]. In addition, the values for the EC50 in experiment [14] and in [16] were 0.419 nM and 0.457 nM, respectively. Also, the “EC50 Ratio (%)” value in [2] was 57%; in experiment [5], 62%; in [6] it was 56%; in [8], 67%; in experiment [9], 54%; in experiment [13], 50%. The “EC50 Ratio (%)” value in experiment [15] and in experiment [17] was 100% in each case. The “EC50 (nM), 4-1BB NFκB luciferase reporter bioassay with AGS (ROR1-positive) cells” value in experiment [7] is 0.2 nM. The “EC50 (nM), 4-1BB NFκB luciferase reporter bioassay with CHOK1-ROR1 cells” value in [7] came to 0.018 nM.
